Binding data for three molecules are collected here from article PMC10252889.

Chains of the proteins cited; added tags and fusions are not shown. Lines headed by an entry give the natural chain unless they say otherwise; changes in a name come on top. A line that says so, or that is headed by a name, gives the form on record, which may keep a tag or linker.
Flag-tagged TREK1 (P97438, form named): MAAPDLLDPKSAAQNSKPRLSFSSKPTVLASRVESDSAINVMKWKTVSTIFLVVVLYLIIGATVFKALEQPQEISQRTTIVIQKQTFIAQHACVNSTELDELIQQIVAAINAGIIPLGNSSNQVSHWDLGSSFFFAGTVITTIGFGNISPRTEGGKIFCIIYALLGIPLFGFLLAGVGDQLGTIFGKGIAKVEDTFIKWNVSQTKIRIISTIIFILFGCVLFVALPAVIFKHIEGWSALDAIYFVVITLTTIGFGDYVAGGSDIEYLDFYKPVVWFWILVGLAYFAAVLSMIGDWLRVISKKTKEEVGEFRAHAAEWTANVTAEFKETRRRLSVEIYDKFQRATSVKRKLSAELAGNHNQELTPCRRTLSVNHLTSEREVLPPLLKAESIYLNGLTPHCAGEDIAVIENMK
UniProt Q8BUW1: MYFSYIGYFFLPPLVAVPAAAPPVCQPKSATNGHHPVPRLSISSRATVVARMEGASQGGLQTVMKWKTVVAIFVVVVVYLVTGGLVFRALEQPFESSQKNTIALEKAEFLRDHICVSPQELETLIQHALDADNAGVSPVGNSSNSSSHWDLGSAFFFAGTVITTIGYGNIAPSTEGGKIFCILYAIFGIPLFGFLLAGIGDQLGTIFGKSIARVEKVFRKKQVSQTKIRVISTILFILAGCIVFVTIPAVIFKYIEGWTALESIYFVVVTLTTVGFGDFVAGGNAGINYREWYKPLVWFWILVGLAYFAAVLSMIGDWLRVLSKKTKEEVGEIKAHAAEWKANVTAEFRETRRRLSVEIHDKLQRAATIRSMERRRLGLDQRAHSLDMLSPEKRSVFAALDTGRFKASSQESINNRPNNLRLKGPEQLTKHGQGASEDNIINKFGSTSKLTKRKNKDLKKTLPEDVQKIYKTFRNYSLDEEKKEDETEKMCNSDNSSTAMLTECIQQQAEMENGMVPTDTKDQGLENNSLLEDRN

The target in assay [1] is VC-tagged TREK1 (TWIK-related K+ channel 1) (mouse) (UniProt P97438). Kind of assay: split reporter; BiFC with split Venus (VN-tagged β-COP, VC-tagged channel) in co-transfected HEK293T cells, 24 h, fixed with 4% paraformaldehyde, confocal microscopy.
In assay [2] the target is VC-tagged TREK2 (TWIK-related K+ channel 2) (mouse) (UniProt Q8BUW1). The assay is described as above.
The target in assay [3] is T1, VC-tagged TRAAK (TWIK-related acid-arachidonic activated K+ channel) (mouse) (UniProt O88454).
T1 sequence: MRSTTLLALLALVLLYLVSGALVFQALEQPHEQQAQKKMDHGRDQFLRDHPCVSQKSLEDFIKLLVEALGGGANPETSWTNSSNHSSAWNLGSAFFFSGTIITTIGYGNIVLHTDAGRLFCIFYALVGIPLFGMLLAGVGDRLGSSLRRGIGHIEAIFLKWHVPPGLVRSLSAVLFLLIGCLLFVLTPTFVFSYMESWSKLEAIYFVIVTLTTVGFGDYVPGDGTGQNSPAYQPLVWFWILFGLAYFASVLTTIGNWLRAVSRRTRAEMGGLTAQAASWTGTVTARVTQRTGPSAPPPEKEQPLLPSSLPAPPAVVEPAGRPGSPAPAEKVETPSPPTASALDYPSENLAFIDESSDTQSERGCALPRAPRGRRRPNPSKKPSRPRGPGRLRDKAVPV
The description is as above.

The target in assay [4] is T2, Flag-tagged TRAAK (mouse) (UniProt O88454).
T2 sequence: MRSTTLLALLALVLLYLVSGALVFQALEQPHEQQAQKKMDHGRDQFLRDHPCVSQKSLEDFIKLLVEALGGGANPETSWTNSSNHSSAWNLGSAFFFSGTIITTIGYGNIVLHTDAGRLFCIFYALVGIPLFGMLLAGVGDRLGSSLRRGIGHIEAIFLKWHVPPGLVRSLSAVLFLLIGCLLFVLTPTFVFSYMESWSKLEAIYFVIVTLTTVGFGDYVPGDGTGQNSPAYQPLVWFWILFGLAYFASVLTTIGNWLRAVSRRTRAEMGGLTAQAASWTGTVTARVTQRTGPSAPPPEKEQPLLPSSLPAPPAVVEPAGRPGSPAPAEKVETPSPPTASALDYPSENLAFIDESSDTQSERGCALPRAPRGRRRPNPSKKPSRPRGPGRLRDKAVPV
Kind of assay: co-IP; HEK293T cells co-transfected with Flag-tagged channel and GFP-β-COP; lysate immunoprecipitated with anti-Flag overnight at 4 °C, Protein G agarose, blotted with anti-GFP.

In assay [5] the target is Flag-tagged TREK1 (mouse) (UniProt P97438). The assay is described as above.
Assay [6] has as its target Flag-tagged TREK2 (mouse) (UniProt Q8BUW1). Described as above.
In assay [7] the target is GFP-tagged TREK2 (mouse) (UniProt Q8BUW1). The assay is described as follows: co-IP; HEK293T cells co-transfected with GFP-tagged TREK2 or its deletion mutants and mCh-β-COP; lysate immunoprecipitated with anti-GFP overnight at 4 °C, Protein G agarose, blotted with anti-mCh (anti-RFP).

These are yes or no findings as the source states them, for the method shown. Binding seen in cells or lysates may run through a third protein. Some entries that bind do so weakly or less than the wild type. Tags and fused reporters may be left off the sequences shown.

B1: VN-tagged β-COP (β-coat protein) (protein, UniProt Q9JIF7 1-953)
chain: MTAAENVCYTLINVPMDSEPPSEISLKNDLEKGDVKSKTEALKKVIIMILNGEKLPGLLMTIIRFVLPLQDHTIKKLLLVFWEIVPKTTPDGRLLHEMILVCDAYRKDLQHPNEFIRGSTLRFLCKLKEAELLEPLMPAIRACLEHRHSYVRRNAVLAIYTIYRNFEHLIPDAPELIHDFLVNEKDASCKRNAFMMLIHADQDRALDYLSTCIDQVQTFGDILQLVIVELIYKVCHANPSERARFIRCIYNLLQSSSPAVKYEAAGTLVTLSSAPTAIKAAAQCYIDLIIKESDNNVKLIVLDRLVELKEHPAHERVLQDLVMDILRVLSTPDLEVRKKTLQLALDLVSSRNVEELVIVLKKEVIKTNNVSEHEDTDKYRQLLVRTLHSCSVRFPDMAANVIPVLMEFLSDSNEAAAADVLEFVREAIQRFDNLRMLIVEKMLEVFHAIKSVKIYRGALWILGEYCSTKEDIQSVMTEVRRSLGEIPIVESEIKKEAGELKPEEEITVGPVQKLVTEMGTYATQSALSSSRPTKKEEDRPPLRGFLLDGDFFVAASLATTLTKIALRYVALVQEKKKQNSFVAEAMLLMATILHLGKSSLPKKPITDDDVDRISLCLKVLSECSPLMNDIFNKECRQSLSQMLSAKLEEEKLSQKKESEKRNVTVQPDDPISFMQLTAKNEMNCKEDQFQLSLLAAMGNTQRKEAADPLASKLNKVTQLTGFSDPVYAEAYVHVNQYDIVLDVLVVNQTSDTLQNCTLELATLGDLKLVEKPSPLTLAPHDFANIKANVKVASTENGIIFGNIVYDVSGAASDRNCVVLSDIHIDIMDYIQPATCTDAEFRQMWAEFEWENKVTVNTNMTDLNDYLQHILKSTNMKCLTPEKALSGYCGFMAANLYARSIFGEDALANVSIEKPVHQGPDAAVTGHIRIRAKSQGMALSLGDKINLSQKKTSL
As to B1, the binding entry in assay [1] was “binds”; in assay [2], “binds”; in assay [3], “no binding”.

B2: GFP-tagged β-COP (protein, UniProt Q9JIF7 1-953)
chain: MTAAENVCYTLINVPMDSEPPSEISLKNDLEKGDVKSKTEALKKVIIMILNGEKLPGLLMTIIRFVLPLQDHTIKKLLLVFWEIVPKTTPDGRLLHEMILVCDAYRKDLQHPNEFIRGSTLRFLCKLKEAELLEPLMPAIRACLEHRHSYVRRNAVLAIYTIYRNFEHLIPDAPELIHDFLVNEKDASCKRNAFMMLIHADQDRALDYLSTCIDQVQTFGDILQLVIVELIYKVCHANPSERARFIRCIYNLLQSSSPAVKYEAAGTLVTLSSAPTAIKAAAQCYIDLIIKESDNNVKLIVLDRLVELKEHPAHERVLQDLVMDILRVLSTPDLEVRKKTLQLALDLVSSRNVEELVIVLKKEVIKTNNVSEHEDTDKYRQLLVRTLHSCSVRFPDMAANVIPVLMEFLSDSNEAAAADVLEFVREAIQRFDNLRMLIVEKMLEVFHAIKSVKIYRGALWILGEYCSTKEDIQSVMTEVRRSLGEIPIVESEIKKEAGELKPEEEITVGPVQKLVTEMGTYATQSALSSSRPTKKEEDRPPLRGFLLDGDFFVAASLATTLTKIALRYVALVQEKKKQNSFVAEAMLLMATILHLGKSSLPKKPITDDDVDRISLCLKVLSECSPLMNDIFNKECRQSLSQMLSAKLEEEKLSQKKESEKRNVTVQPDDPISFMQLTAKNEMNCKEDQFQLSLLAAMGNTQRKEAADPLASKLNKVTQLTGFSDPVYAEAYVHVNQYDIVLDVLVVNQTSDTLQNCTLELATLGDLKLVEKPSPLTLAPHDFANIKANVKVASTENGIIFGNIVYDVSGAASDRNCVVLSDIHIDIMDYIQPATCTDAEFRQMWAEFEWENKVTVNTNMTDLNDYLQHILKSTNMKCLTPEKALSGYCGFMAANLYARSIFGEDALANVSIEKPVHQGPDAAVTGHIRIRAKSQGMALSLGDKINLSQKKTSL
Regarding B2, the results for the binding result in assay [4], in assay [5] and in assay [6] were “no binding”, “binds” and “binds”, respectively.

B3: mCherry-tagged β-COP (protein, UniProt Q9JIF7 1-953)
chain: MTAAENVCYTLINVPMDSEPPSEISLKNDLEKGDVKSKTEALKKVIIMILNGEKLPGLLMTIIRFVLPLQDHTIKKLLLVFWEIVPKTTPDGRLLHEMILVCDAYRKDLQHPNEFIRGSTLRFLCKLKEAELLEPLMPAIRACLEHRHSYVRRNAVLAIYTIYRNFEHLIPDAPELIHDFLVNEKDASCKRNAFMMLIHADQDRALDYLSTCIDQVQTFGDILQLVIVELIYKVCHANPSERARFIRCIYNLLQSSSPAVKYEAAGTLVTLSSAPTAIKAAAQCYIDLIIKESDNNVKLIVLDRLVELKEHPAHERVLQDLVMDILRVLSTPDLEVRKKTLQLALDLVSSRNVEELVIVLKKEVIKTNNVSEHEDTDKYRQLLVRTLHSCSVRFPDMAANVIPVLMEFLSDSNEAAAADVLEFVREAIQRFDNLRMLIVEKMLEVFHAIKSVKIYRGALWILGEYCSTKEDIQSVMTEVRRSLGEIPIVESEIKKEAGELKPEEEITVGPVQKLVTEMGTYATQSALSSSRPTKKEEDRPPLRGFLLDGDFFVAASLATTLTKIALRYVALVQEKKKQNSFVAEAMLLMATILHLGKSSLPKKPITDDDVDRISLCLKVLSECSPLMNDIFNKECRQSLSQMLSAKLEEEKLSQKKESEKRNVTVQPDDPISFMQLTAKNEMNCKEDQFQLSLLAAMGNTQRKEAADPLASKLNKVTQLTGFSDPVYAEAYVHVNQYDIVLDVLVVNQTSDTLQNCTLELATLGDLKLVEKPSPLTLAPHDFANIKANVKVASTENGIIFGNIVYDVSGAASDRNCVVLSDIHIDIMDYIQPATCTDAEFRQMWAEFEWENKVTVNTNMTDLNDYLQHILKSTNMKCLTPEKALSGYCGFMAANLYARSIFGEDALANVSIEKPVHQGPDAAVTGHIRIRAKSQGMALSLGDKINLSQKKTSL
Turning to B3, in assay [7], the binding entry is “binds”.
